Paper PMC5700166
The entries are a selection whose mix differs from that of the whole data set. The list includes weakly bound sequences.

Key:
Assay in all cases: protein-binding microarray (PBM)
Details in all cases: PBM: ~300 nM protein, 6 mM HEPES pH 7.8, 80 mM KCl, 0.5 mM EDTA, 0.5 mM EGTA, 6% glycerol, 35 ng/ul poly-dIdC, 1% milk, 1 h, room temperature; Ap Aiptasia and Nv Nematostella (sea anemones) / Co Capsaspora / Aq Amphimedon (sponge) / Dm Drosophila / Hu human; RHD is the Rel homology domain; high values mean tight binding; most listed sequences are background and not binding sites; double strand, one strand shown
GST-Ap-NF-kB RHD = target: T1, GST-Ap-NF-kB RHD (UniProt A0A913YAJ5)
T1 sequence: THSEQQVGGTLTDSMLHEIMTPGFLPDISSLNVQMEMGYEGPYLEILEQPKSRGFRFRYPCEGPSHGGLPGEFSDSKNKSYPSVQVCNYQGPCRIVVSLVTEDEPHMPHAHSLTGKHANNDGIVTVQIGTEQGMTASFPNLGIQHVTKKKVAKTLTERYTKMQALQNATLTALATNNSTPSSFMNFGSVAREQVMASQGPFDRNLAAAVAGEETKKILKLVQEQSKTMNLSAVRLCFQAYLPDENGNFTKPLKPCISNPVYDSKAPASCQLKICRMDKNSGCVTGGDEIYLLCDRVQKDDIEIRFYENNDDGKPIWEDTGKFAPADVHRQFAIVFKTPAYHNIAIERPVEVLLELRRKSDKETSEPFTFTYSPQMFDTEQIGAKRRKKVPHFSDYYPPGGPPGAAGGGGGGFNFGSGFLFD

[1] = target: T2, GST-Nv-NF-kB (Cys allele) (UniProt E5G601)
T2 sequence: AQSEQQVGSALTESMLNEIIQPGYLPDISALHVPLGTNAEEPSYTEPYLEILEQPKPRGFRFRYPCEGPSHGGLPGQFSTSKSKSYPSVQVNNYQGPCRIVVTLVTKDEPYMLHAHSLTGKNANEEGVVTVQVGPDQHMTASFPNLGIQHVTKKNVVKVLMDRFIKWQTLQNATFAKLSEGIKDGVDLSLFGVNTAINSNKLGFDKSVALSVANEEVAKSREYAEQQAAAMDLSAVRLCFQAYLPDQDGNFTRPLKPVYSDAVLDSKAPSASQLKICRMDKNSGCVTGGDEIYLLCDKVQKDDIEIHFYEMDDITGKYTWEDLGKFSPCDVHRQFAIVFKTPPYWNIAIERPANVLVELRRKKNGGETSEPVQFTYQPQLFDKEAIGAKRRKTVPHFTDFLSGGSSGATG

GST-Co-NF-kB = target: T3, GST-Co-NF-kB (UniProt F1ARL5)
T3 sequence: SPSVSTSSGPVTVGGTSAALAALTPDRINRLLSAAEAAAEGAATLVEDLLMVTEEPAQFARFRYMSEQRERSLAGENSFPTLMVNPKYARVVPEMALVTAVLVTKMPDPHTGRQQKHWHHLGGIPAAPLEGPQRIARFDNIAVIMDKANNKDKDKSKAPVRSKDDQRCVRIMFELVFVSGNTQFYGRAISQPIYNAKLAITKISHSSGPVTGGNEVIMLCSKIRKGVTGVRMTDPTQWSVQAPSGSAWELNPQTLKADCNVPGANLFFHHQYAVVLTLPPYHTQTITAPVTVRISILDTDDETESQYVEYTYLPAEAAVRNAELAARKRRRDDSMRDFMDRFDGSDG

GST-Dm-Relish = target: T4, GST-Dm-Relish (UniProt Q94527)
T4 sequence: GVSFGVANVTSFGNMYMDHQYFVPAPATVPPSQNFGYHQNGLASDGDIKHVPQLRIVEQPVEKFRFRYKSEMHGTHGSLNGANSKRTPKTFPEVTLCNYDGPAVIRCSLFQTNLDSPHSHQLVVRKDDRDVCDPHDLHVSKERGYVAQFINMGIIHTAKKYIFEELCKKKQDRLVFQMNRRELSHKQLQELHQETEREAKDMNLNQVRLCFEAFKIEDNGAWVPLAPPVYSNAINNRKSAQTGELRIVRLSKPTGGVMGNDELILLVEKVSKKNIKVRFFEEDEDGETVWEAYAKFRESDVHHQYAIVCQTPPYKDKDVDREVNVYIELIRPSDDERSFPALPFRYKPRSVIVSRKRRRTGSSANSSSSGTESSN

GST-Aq-NF-kB = target: T5, GST-Aq-NF-kB (UniProt A9Y5G7)
T5 sequence: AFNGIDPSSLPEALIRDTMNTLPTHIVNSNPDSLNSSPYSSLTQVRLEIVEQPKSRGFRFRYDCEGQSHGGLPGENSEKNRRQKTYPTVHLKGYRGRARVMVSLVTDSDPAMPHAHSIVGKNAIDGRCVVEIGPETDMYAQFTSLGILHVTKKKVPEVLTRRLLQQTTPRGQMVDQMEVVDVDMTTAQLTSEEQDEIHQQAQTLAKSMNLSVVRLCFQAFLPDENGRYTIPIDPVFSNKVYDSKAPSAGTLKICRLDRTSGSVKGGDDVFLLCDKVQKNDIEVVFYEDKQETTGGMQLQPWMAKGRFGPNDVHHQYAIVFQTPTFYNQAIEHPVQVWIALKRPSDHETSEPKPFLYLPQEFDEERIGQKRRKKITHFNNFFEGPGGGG

| Sequence | binding signal (GST-Ap-NF-kB RHD) | binding signal [1] | binding signal (GST-Co-NF-kB) | binding signal (GST-Dm-Relish) | binding signal (GST-Aq-NF-kB) |
| --- | --- | --- | --- | --- | --- |
| CCGATTAACATCAATCATGAGGCTGATGTTAATCGGGTCTTGATTCGCTTGACGCTGCTG | -0.111 z-score | 0.098 z-score | -0.205 z-score | -0.573 z-score | -0.579 z-score |
| CCGATTAACATCAAGTTATTTCCTGATGTTAATCGGGTCTTGATTCGCTTGACGCTGCTG | -0.46 z-score | -0.521 z-score | 0.259 z-score | 0.88 z-score | 0.785 z-score |
| CCGATTAACATCAGGTGTGTGCCTGATGTTAATCGGGTCTTGATTCGCTTGACGCTGCTG | -0.398 z-score | -0.486 z-score | -1.25 z-score | -0.828 z-score | -0.384 z-score |
| CCGATTAACATCAACTCCGAGGTTGATGTTAATCGGGTCTTGATTCGCTTGACGCTGCTG | -0.504 z-score | -0.117 z-score | -0.657 z-score | -0.184 z-score | -0.35 z-score |
| CCGATTAACATCACAAGGCGTTATGATGTTAATCGGGTCTTGATTCGCTTGACGCTGCTG | -0.0133 z-score | -0.336 z-score | -0.211 z-score | -0.405 z-score | -0.19 z-score |
| CCGATTAACATCACGAGAATTCCTGATGTTAATCGGGTCTTGATTCGCTTGACGCTGCTG | 0.096 z-score | 0.208 z-score | 0.366 z-score | 0.645 z-score | 0.604 z-score |
| CCGATTAACATCAGGACACTCCCTGATGTTAATCGGGTCTTGATTCGCTTGACGCTGCTG | 1.81 z-score | 2.51 z-score | 0.296 z-score | 0.845 z-score | 5.35 z-score |
| CCGATTAACATCAGTACCTCGTATGATGTTAATCGGGTCTTGATTCGCTTGACGCTGCTG | -0.0235 z-score | 0.569 z-score | 0.25 z-score | -0.259 z-score | 0.228 z-score |
| CCGATTAACATCAACCAGACAGTTGATGTTAATCGGGTCTTGATTCGCTTGACGCTGCTG | -0.336 z-score | -0.467 z-score | -0.318 z-score | -0.86 z-score | -0.5 z-score |
| CCGATTAACATCAGGTAATATATTGATGTTAATCGGGTCTTGATTCGCTTGACGCTGCTG | 0.612 z-score | 0.3 z-score | 0.572 z-score | 0.0031 z-score | 0.537 z-score |
| CCGATTAACATCAAGTCAACGGGTGATGTTAATCGGGTCTTGATTCGCTTGACGCTGCTG | 0.338 z-score | 0.219 z-score | 0.796 z-score | 0.721 z-score | 0.411 z-score |
| CCGATTAACATCACATCATTTTGTGATGTTAATCGGGTCTTGATTCGCTTGACGCTGCTG | -1.02 z-score | -0.0887 z-score | -0.407 z-score | 0.925 z-score | -0.38 z-score |
